# In all, about 410,000 compounds went through this assay and about 1,200 (0.29%) were called active. The shares of active, inactive and inconclusive entries below differ from those in the screen. The call rests on the fitted dose curve; in most records, active means well fitted activation curve with a large enough effect; inconclusive means small, poorly fitted or top-dose-only effect; inactive means flat fitted curve, though single readings scatter. A potency beside an inconclusive call is a rough fit, not a confirmed value.
# Experiment: qHTS of Nrf2 Activators; further: nearly all actives have a fitted effect of over 65% in size; on activation: % of control where 0% means no effect
# Details: AREc32 ARE-luciferase reporter (MCF7-derived line), luminescence, 24 h; activation: at 46.1 µM (top of the series)
# Method in brief: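 Cells of the AREc32 ARE-luciferase line are plated in OPTI-MEM containing 5% FBS and left overnight at 37 deg C. Compounds are pinned in, incubation continues 24 hr, and firefly luciferase signal is then measured.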
# Potency means the concentration at half of the fitted maximal effect; tags describe the fitted curve by direction and shape.
Compound,Potency,activation
Cn1cc(C(=O)CCl)c2ccccc21,"inconclusive: 35.5 µM [activator, single point]",
COc1ccc(/C=C(\C#N)C(=O)N2CCOCC2)cc1Br,,inactive: 2.19%
O=C(/C=C/Nc1ccc(F)c(Cl)c1)c1ccco1,"inconclusive: 1.58 µM [activator, full curve, poor fit]",
Cc1ccccc1-c1noc(-c2cccs2)n1,"inconclusive: 7.08 µM [activator, partial curve, poor fit]",
Nc1c(Cl)c(Cl)nc(C(=O)N/N=C/c2ccco2)c1Cl,"inconclusive: 2.82 µM [activator, full curve, poor fit]",
Cc1cccc(C(=O)Nc2nc3ccc(S(C)(=O)=O)cc3s2)c1,,inactive: 6.61%
COc1ccc(NC(=O)N2CCCc3ccccc32)cc1,,inactive: 3.65%
O=C(c1ccccc1)C1OC1C(=O)c1ccccc1 (stereo not drawn),active: 12.6 µM,
C=C(NC(=O)C(=C)NC(=O)c1csc(C2=NC3c4csc(n4)C4NC(=O)c5csc(n5)C(C(C)(O)C(C)O)NC(=O)C5CSC(=N5)/C(=C/C)NC(=O)C(C(C)O)NC(=O)c5csc(n5)C3(CC2)NC(=O)C(C)NC(=O)C(=C)NC(=O)C(=C)NC(=O)C(C(C)C)NC2C=Cc3c(C(C)O)cc(nc3C2O)C(=O)OC4C)n1)C(N)=O (stereo not drawn),"inconclusive: 1.26 µM [activator, full curve, poor fit]",
CCCC[C@H]1COCCS(=O)(=O)N1Cc1ccc(C)cc1,"inconclusive: 25.1 µM [activator, single point]",
CNc1nc(Nc2ccc(Br)cc2)nc(N)c1[N+](=O)[O-],"inconclusive: 7.08 µM [activator, partial curve, poor fit]",
O=C(c1ccc(Cl)cc1)C(CN1CCCC1)c1ccccc1 (stereo not drawn),"inconclusive: 5.62 µM [activator, single point]",
COc1ccc(C2CC(=O)c3cnn(-c4nc(C)cc(C)n4)c3C2)cc1 (stereo not drawn),,inactive: -0.816%
O=C(CSCc1ccco1)N1CCc2ccccc21,"inconclusive: 20 µM [activator, single point]",
COc1cc(CSc2ncc(CO)n2Cc2ccc(C)cc2)cc(OC)c1,"inconclusive: 14.1 µM [activator, single point]",
CCn1cc(C(=O)NCc2ccco2)c(=O)c2cc(S(=O)(=O)N3CCCCCC3)ccc21,,inactive: -0.678%
COc1cc(C2Nc3cccc4cccc(c34)N2)ccc1O,,inactive: 0.598%
O=C(NC1CCCCC1)C(c1cccnc1)N(C(=O)CCl)c1ccc(F)cc1 (stereo not drawn),"inconclusive: 3.16 µM [activator, full curve, poor fit]",
Cc1sc(NC(=O)c2ccco2)c(CN2CCCCC2)c1C,active: 8.91 µM,
Cc1cccc(N=C/C(C(=O)C(F)(F)F)=C(\O)c2ccco2)c1,"inconclusive: 3.55 µM [activator, full curve, poor fit]",
Cc1ccccc1CNC(=O)C(=O)NCC(c1ccc2c(c1)OCO2)N1CCOCC1 (stereo not drawn),,inactive: -0.0593%
FC(F)(F)c1ccc(Cl)c(-n2c(-c3cc(-c4ccco4)[nH]n3)n[nH]c2=S)c1,"inconclusive: 25.1 µM [activator, single point]",
CCN(CC)C(=O)c1ccc(-c2cccs2)s1,"inconclusive: 17.8 µM [activator, single point]",
Oc1ccc2ccccc2c1CNc1ccc(Br)cc1,"inconclusive: 22.4 µM [activator, single point]",
C=CS(=O)(=O)N(Cc1ccccc1Br)[C@H](CO)Cc1ccccc1,"inconclusive: 17.8 µM [activator, single point]",

Compound,Potency,activation
Cc1cccc2c(=O)c(-c3ccc(Cl)cc3)c(NC(=O)c3ccco3)oc12,"inconclusive: 14.1 µM [activator, single point]",
Cc1ccc(O)c(Nc2nc3ccccc3c3nncn23)c1,"inconclusive: 5.62 µM [activator, full curve, poor fit]",
CC(=O)C1=C(O)C(=O)N(c2ccccn2)C1c1ccccc1[N+](=O)[O-] (stereo not drawn),,inactive: 0.665%
Nc1ccc2ccccc2c1N=Nc1ccccc1,"inconclusive: 3.55 µM [activator, partial curve, poor fit]",
CCCCCCCCSC1=CC(=O)C(OC)=C(OC)C1=O,"inconclusive: 10 µM [activator, partial curve]",
COc1ccc(NC(=O)c2cccc(S(=O)(=O)N3CCN(c4ccccc4)CC3)c2)c(OC)c1,,inactive: -0.543%
Cc1cc(C)n2nc(-c3ccsc3-n3c(C)ccc3C)cc2n1,"inconclusive: 35.5 µM [activator, partial curve, poor fit]",
Cc1ccccc1CNC(=O)C1CCCN(c2nnc(C)c3c(C)n(-c4ccccc4)nc23)C1 (stereo not drawn),,inactive: -0.249%
C/C(=N\Nc1nc2ccccc2[nH]1)c1ccc(Cl)s1,"inconclusive: 3.16 µM [activator, partial curve, poor fit]",
Cc1nc2c3cc(F)ccc3n(Cc3ccc(F)cc3)c2s1,,inactive: -0.563%
C/C(=N\Nc1ccc(C(F)(F)F)cn1)c1ccncc1,"inconclusive: 15.8 µM [activator, single point]",
Cc1ccccc1-c1noc(-c2ccc(N3CCC(C)CC3)c([N+](=O)[O-])c2)n1,,inactive: 0.184%
Cc1cc2nc(-c3ccco3)c(Cc3cccc(F)c3)n2c(C)c1Br,"inconclusive: 15.8 µM [activator, single point]",
Cc1ccc2c(c1)sc(=NC(=O)c1cccs1)n2C,"inconclusive: 0.891 µM [activator, full curve, poor fit]",
CCCCNC1c2ccccc2C(=O)N1Cc1ccccc1 (stereo not drawn),,inactive: 0.988% [at 9.22 µM]
Fc1ccc2cc(-c3cccnc3)ncc2c1,,inactive: 16.7%
Cc1csc2ncc(C(=O)Nc3cccc(C(F)(F)F)c3)c(=O)n12,"inconclusive: 12.6 µM [activator, partial curve, poor fit]",
Cc1ccc2cc3cc(C(=O)NCCCN4CCCCCC4)oc3nc2c1,,inactive: 2.04%
CN(C1=C(N2CCCCC2)C(=O)c2ccccc2C1=O)c1ccccc1,,inactive: -0.113%
NC(=O)c1c(NC(=O)c2ccc([N+](=O)[O-])o2)sc2c1CCCC2,active: 3.98 µM,
O=C(NCc1ccc2c(c1)OCO2)c1nc(S(=O)(=O)Cc2ccccc2)ncc1Cl,,inactive: -1.95%
CCN(CC)CCn1c2ccccc2c2nc3ccc([N+](=O)[O-])cc3cc21,"inconclusive: 3.98 µM [activator, partial curve, poor fit]",
S=C(N=Nc1ccccc1)NNc1ccccc1,"inconclusive: 12.6 µM [activator, partial curve]",
COc1ccc(-c2cc3ccccc3c(=O)o2)cc1,"inconclusive: 2 µM [activator, full curve, poor fit]",
Fc1cccc(/C=N/Nc2cc(N3CCOCC3)ncn2)c1,"inconclusive: 8.91 µM [activator, partial curve]",

Compound,Potency,activation
Cc1cc(C(F)(F)F)n2nc(-c3cccs3)cc2n1,"inconclusive: 12.6 µM [activator, partial curve]",
O=C(Nc1cc(Cl)ccc1Cl)c1ccco1,active: 12.6 µM,
COC(=O)c1cc(S(=O)(=O)N2CCOCC2)c(Cl)cc1N1CCOCC1,,inactive: 0.301%
O=C(CSc1nnc(-c2cccnc2)n1CCN1CCCCC1)Nc1cccc(Cl)c1,,inactive: -0.272%
Nc1ccc(N2CCCCC2)c(S(=O)(=O)Nc2ccccc2Cl)c1,,inactive: 3.45%
CSc1sccc1/C=C(/C#N)C(=O)c1ccco1,"inconclusive: 28.2 µM [activator, single point]",
NC(=O)c1cc2ccccc2o/c1=N/NC(=O)c1cccc(F)c1,"inconclusive: 35.5 µM [activator, partial curve, poor fit]",
CC(=O)Nc1ccc(NC(=O)COc2ccc(-c3ccc(C#N)cc3)cc2)cc1,,inactive: 0.0598%
CCC(=O)Nc1cccc(-n2nnnc2SCC(=O)NCc2ccco2)c1,"inconclusive: 15.8 µM [activator, single point]",
CCCCn1c(=O)c2oc3ccccc3c2n(Cc2cccc(C)c2)c1=O,,inactive: -1.07%
CC(C)Cn1c(N)c(C(=O)CSc2nc3ncc(Cl)cc3[nH]2)c(=O)n(C)c1=O,,inactive: 3.55%
N#CC1=C(SCc2ccccc2)NC(=O)CC1c1ccc(O)cc1 (stereo not drawn),,inactive: -0.232%
CCCc1nc(SCC(=O)N2CCC(C)CC2)c2c(=O)n(C)c(=O)n(C)c2n1,,inactive: -0.126%
COc1cccc(CNC(=O)CCn2c(=O)c3cccn3c3cccnc32)c1OC,"inconclusive: 12.6 µM [activator, single point]",
CSc1nc(N(C)C)nc(N(C#N)CCOC(C)=O)n1,"inconclusive: 14.1 µM [activator, single point]",
O=C(CCCN1C(=O)/C(=C/c2ccco2)SC1=S)Nc1ccccc1,"inconclusive: 35.5 µM [activator, single point]",
O=C(c1cc2ccccc2o1)c1cccs1,active: 22.4 µM,
CC(C)Cc1nnc(NC(=O)CCS(=O)(=O)c2ccc(Cl)cc2)s1,"inconclusive: 15.8 µM [activator, single point]",
O=C(CSc1ncccc1C(=O)O)c1ccc2ccccc2c1,,inactive: -1.42%
CCN(CC)S(=O)(=O)c1cc(C(=O)OC(C)C(=O)NCc2ccco2)ccc1C (stereo not drawn),"inconclusive: 22.4 µM [activator, single point]",
COc1ccc(Cl)cc1NC(=O)CN(C)C(=O)/C=C/c1ccco1,"inconclusive: 11.2 µM [activator, partial curve, poor fit]",
CCN(C(=O)COC(=O)c1cccnc1Nc1cccc(C(F)(F)F)c1)C1CCS(=O)(=O)C1 (stereo not drawn),active: 11.2 µM,
COc1cccc(-c2nnc(NC(=O)CCS(=O)(=O)c3ccc(F)cc3)o2)c1,"inconclusive: 20 µM [activator, single point]",

# Reference: PubChem BioAssay AID624171 (National Center for Advancing Translational Sciences (NCATS), 2012)
